Results reported in publication PMC4336329 (PLoS ONE, 2015).
The whole screen tested about 310,000 compounds, of which about 2,200 (0.71%) showed an effect of 50% or more. The effect is printed as a negative number. Some of the results follow.

Each compound was assayed against human ether-à-go-go-related gene (hERG) potassium channel (human, UniProt Q12809) (assay: primary screen, population patch clamp on CHO cells stably expressing hERG).
human ether-à-go-go-related gene (hERG) potassium channel, sequence (Q12809 whole entry, looked up): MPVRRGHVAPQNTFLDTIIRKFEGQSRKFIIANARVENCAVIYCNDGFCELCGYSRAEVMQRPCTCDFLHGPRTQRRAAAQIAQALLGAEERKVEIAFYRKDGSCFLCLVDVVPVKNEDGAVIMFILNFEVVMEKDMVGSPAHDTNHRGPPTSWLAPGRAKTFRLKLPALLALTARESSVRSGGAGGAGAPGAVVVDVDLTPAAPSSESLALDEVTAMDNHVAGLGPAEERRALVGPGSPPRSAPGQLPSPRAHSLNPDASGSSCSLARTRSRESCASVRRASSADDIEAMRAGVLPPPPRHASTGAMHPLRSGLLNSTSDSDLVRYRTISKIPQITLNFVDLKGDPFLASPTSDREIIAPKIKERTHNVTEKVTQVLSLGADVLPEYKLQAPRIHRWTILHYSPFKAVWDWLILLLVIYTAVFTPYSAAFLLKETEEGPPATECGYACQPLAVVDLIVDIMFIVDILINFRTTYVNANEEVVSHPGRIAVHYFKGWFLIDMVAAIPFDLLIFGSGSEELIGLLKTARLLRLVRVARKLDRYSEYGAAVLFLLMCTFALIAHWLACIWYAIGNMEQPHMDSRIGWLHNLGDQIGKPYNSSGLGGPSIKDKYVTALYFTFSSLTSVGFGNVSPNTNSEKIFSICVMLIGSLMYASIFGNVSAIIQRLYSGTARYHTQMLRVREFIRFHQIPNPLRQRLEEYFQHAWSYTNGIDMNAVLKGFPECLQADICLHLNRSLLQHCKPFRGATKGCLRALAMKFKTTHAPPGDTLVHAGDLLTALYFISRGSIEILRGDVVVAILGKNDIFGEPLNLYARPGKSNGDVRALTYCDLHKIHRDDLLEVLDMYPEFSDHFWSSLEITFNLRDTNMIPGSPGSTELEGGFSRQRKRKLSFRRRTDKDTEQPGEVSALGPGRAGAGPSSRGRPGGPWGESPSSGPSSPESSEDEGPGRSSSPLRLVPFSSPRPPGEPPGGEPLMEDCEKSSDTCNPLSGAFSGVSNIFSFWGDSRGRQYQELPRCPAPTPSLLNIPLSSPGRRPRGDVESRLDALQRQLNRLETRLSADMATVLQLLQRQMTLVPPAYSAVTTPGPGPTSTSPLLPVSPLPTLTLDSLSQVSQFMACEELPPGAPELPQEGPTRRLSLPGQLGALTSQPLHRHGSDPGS

Going from Brc1ccc(/C=N/c2nc3ccccc3n2CCN2CCOCC2)cc1 to O=C(CSc1nc2ccccc2o1)Nc1ccc(Cl)cc1, the “hERG current change (%, negative = inhibition) at 1uM” value falls from 9.25% to -21.5%.

Going from CCC/C(O)=C1\C(=O)CC(c2ccccc2)CC1=NCCc1c(C)[nH]c2ccc(C)cc12 (centres unmarked) to COc1cc(C(C#N)N2N=C(c3ccccc3)CC2c2ccccc2)ccc1O (centres unmarked), the “hERG current change (%, negative = inhibition) at 1uM” value falls from 11.4% to -3.66%.

Compared with COc1ccc(CCn2c(O)c(C=NCCCN(C)C)c(=O)[nH]c2=O)cc1OC, COc1cc(/C=N/NC(=O)C(N)=O)cc(OC)c1O is higher in “hERG current change (%, negative = inhibition) at 1uM” value: -1.74% for the first, 2.87% for the second.

Going from COc1ccccc1C(=O)Nc1ccc(C(=O)/C=C/c2cccs2)cc1 to CCOc1ccc(NC(=O)C(C)Oc2ccccc2C(=O)Nc2cccc(Cl)c2Cl)cc1 (centres unmarked), the “hERG current change (%, negative = inhibition) at 1uM” value rises from 8.74% to 14.3%.

First: CCOc1cc(S(=O)(=O)NC2CCCCCC2)ccc1F
Second: COc1cccc(C(=O)NC2CCN(C(=O)N3CCCCC3)CC2)c1
The “hERG current change (%, negative = inhibition) at 1uM” value of the first is lower: 2.64% for the first, 13.4% for the second.

First: Cc1[nH]c(=O)[nH]c(=O)c1S(=O)(=O)N(C)Cc1ccccc1
Second: Cc1ccc2cc(CNC(C)C)c(=O)[nH]c2c1
The “hERG current change (%, negative = inhibition) at 1uM” value of the first is higher: 0.238% for the first, -2.11% for the second.

Going from Cc1cccc(N2CCN(C(=O)COc3cc4oc(=O)cc(C)c4cc3Cl)CC2)c1C to Cc1ccc(C)c(CN2CCC(CNC(=O)Nc3ccc(C)c(C)c3)CC2)c1, the “hERG current change (%, negative = inhibition) at 1uM” value falls from 7.06% to -42.8%.

Going from CCOC(=O)CN1CC23C=CC(O2)C(C(=O)Nc2ccc(F)c(C)c2)C3C1=O (centres unmarked) to CCC1(CC)NC(=O)N(CC(=O)NCc2ccc3c(c2)OCO3)C1=O, the “hERG current change (%, negative = inhibition) at 1uM” value falls from 16.3% to 13.2%.

First: COc1ccc(NC(=O)C(=O)NCc2ccncc2)c(OC)c1
Second: COc1ccc(NC(=O)c2ccccc2Oc2ccccc2)c(OC)c1
The “hERG current change (%, negative = inhibition) at 1uM” value of the first is lower: 9.16% for the first, 11.9% for the second.

First: C/C(=N\NC(=O)c1ccc(N2CCCC2=O)cc1)c1ccncc1
Second: Cc1ccc(-n2c(C)cc(/C=N/NC(=O)c3ccncc3)c2C)c(C)c1
The “hERG current change (%, negative = inhibition) at 1uM” value of the first is higher: 10.2% for the first, -4.93% for the second.

Compared with COC(=O)c1ccc(OC(=O)C23CCC(C)(C(=O)O2)C3(C)C)cc1 (centres unmarked), CC(=O)Oc1ccc(C(=O)Nc2ccc(C3(C#N)CCCC3)cc2)cc1 is higher in “hERG current change (%, negative = inhibition) at 1uM” value: 8.97% for the first, 19.6% for the second.

Going from Cc1cc(C(=O)OCC(=O)c2ccc3c(c2)OCCO3)c(C)o1 to Cn1c(NC(=O)c2ccc3c(c2)OCO3)cc(=O)n(C)c1=O, the “hERG current change (%, negative = inhibition) at 1uM” value rises from 9.27% to 17.2%.

Compared with CC(=O)Nc1ccc(SCC(=O)Nc2ccccc2-c2ccccc2)cc1, CCCC(=O)Nc1ccc(NC(=S)NC(=O)c2ccccc2[N+](=O)[O-])cc1 is lower in “hERG current change (%, negative = inhibition) at 1uM” value: 12.6% for the first, 9.36% for the second.

First: N#Cc1ccsc1NC(=O)C1=COCCO1
Second: CC(=O)c1ccc(N2CCCC2)c(F)c1
The “hERG current change (%, negative = inhibition) at 1uM” value of the first is higher: 7.49% for the first, 5.72% for the second.

First: COc1ccc(NC(=O)c2sc3nc(C)cc(C)c3c2N)cc1
Second: COc1cc(C2C(C#N)=C(N)Oc3n[nH]c(-c4cccnc4)c32)cc(Br)c1O (centres unmarked)
The “hERG current change (%, negative = inhibition) at 1uM” value of the first is higher: 19.1% for the first, 16.2% for the second.

Going from CC(C)(C)NC(=O)NC(=O)COC(=O)C1(C)CC1(Cl)Cl (centres unmarked) to CC(C)C[C@H](NC(=O)c1cc2cc(Cl)ccc2n1C)C(=O)N1CCC(C(=O)O)CC1, the “hERG current change (%, negative = inhibition) at 1uM” value rises from 7% to 10.9%.

Going from Cc1ccc(C)c(C(=O)CCC(=O)O)c1 to CN(C)CC(O)COc1cc2ccccc2cc1C(=O)N1CCCCC1 (centres unmarked), the “hERG current change (%, negative = inhibition) at 1uM” value falls from -3.19% to -13.7%.

First: Cc1cccn2c(Nc3ccccc3)c(-c3ccccn3)nc12
Second: O=C(C(c1ccccc1)c1ccccc1)N1CCN(Cc2ccccn2)CC1
The “hERG current change (%, negative = inhibition) at 1uM” value of the first is higher: 5.27% for the first, 1.07% for the second.

Compared with CCCCC1=CC2=CC(=O)C(C)(OC(=O)CC)C(=O)C2=CN1CCOC (centres unmarked), CCCn1c(SCC(=O)N2CCCCC2)nc2c1c(=O)n(C)c(=O)n2C is higher in “hERG current change (%, negative = inhibition) at 1uM” value: 8.62% for the first, 14.1% for the second.

First: S=c1[nH]nc(-c2cccs2)n1C1CCCCC1
Second: CCN(C(=O)[C@@H]1CCCN1C(=O)c1cccs1)c1nc2cc(Cl)ccc2s1
The “hERG current change (%, negative = inhibition) at 1uM” value of the first is higher: 9.76% for the first, -3.28% for the second.

Compared with COC(=O)c1cc2ccsc2n1Cc1cc(=O)n2ccccc2n1, N/C(=N/OC(=O)c1ccccc1F)c1nonc1N is higher in “hERG current change (%, negative = inhibition) at 1uM” value: 9.97% for the first, 17.2% for the second.

Going from COc1ccc(-c2oc3ccc(N4CCOCC4)cc3c2C#Cc2ccc(N)cc2)cc1 to Br.O=c1cc2c(n[nH]1)CCCC2, the “hERG current change (%, negative = inhibition) at 1uM” value falls from 14.2% to 4.64%.
